According to PubChem BioAssay (Tox21):
“And” between values parts separate entries of the source, which are not always exact repeats. Identical values can stand only once. The inconclusive results got no clear call from the source; some entries with a clear call stand among them for comparison. Calls come from the whole dose curve; as a rule, active = well fitted inhibition curve with a large enough effect in the signal ratio in the repeat runs (not every such curve was filed as active); inconclusive = weak or mixed curves, or effect the other way; inactive = no such curve, though single readings can be large or run the other way; the % refers to the signal ratio. Where the call is inconclusive, the potency comes from a doubtful curve fit.

What follows are molecules tested against Glucocorticoid receptor (Homo sapiens) (UniProt P04150) (assay: qHTS assay to identify small molecule antagonists of the glucocorticoid receptor (GR) signaling pathway (AID 720692)). Conditions: GR-bla HeLa, beta-lactamase FRET ratio, dexamethasone-stimulated, 18 h; activity change, negative = inhibition: at 58.5 µM (top of the series) unless noted.
UniProt P04150, sequence (P04150 whole entry, looked up): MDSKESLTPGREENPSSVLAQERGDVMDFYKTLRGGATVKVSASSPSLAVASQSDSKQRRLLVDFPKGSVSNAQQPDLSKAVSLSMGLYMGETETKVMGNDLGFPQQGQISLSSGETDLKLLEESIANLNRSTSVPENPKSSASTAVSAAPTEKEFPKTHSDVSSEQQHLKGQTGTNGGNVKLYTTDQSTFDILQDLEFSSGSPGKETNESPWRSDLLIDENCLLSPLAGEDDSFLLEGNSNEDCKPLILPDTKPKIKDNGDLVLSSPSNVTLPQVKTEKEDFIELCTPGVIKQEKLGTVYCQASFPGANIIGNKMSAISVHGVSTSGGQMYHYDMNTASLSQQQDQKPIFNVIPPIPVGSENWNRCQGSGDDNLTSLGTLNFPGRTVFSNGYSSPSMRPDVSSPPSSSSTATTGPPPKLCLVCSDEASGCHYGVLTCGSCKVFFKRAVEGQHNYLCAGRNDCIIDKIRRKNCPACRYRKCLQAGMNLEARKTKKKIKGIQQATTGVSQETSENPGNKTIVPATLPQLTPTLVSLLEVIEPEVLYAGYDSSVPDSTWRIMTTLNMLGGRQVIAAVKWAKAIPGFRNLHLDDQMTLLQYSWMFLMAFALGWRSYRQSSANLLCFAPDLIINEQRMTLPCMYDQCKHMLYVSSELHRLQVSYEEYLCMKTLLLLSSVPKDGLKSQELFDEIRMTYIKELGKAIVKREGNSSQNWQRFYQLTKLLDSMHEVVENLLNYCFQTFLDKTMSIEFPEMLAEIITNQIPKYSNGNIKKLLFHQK
Summary of the method: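 Quantitative HTS in antagonist format: HeLa cells expressing endogenous GR and a stably integrated GRE-bla reporter, stimulated with 5 nM dexamethasone (final) alongside test compounds for 18 h.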
% is set by controls: 0 for no effect and ±100 for the full control effect; potency is the fitted concentration of half-maximal effect; tags give direction and shape of the fitted curve or compound fluorescence and quenching.

Row | SMILES | activity change, negative = inhibition | Potency
1 | C1CCCNCC1 | inconclusive: 17.7% [at 78.9 µM] | 
2 | COCCc1ccc(OCC(O)CNC(C)C)cc1 (centres undefined) |  | inconclusive: 10.7 µM [activator, full curve]
3 | OC[C@H]1O[C@@H]2O[C@H]3[C@H](O)[C@@H](O)[C@@H](O[C@H]4[C@H](O)[C@@H](O)[C@@H](O[C@H]5[C@H](O)[C@@H](O)[C@@H](O[C@H]6[C@H](O)[C@@H](O)[C@@H](O[C@H]7[C@H](O)[C@@H](O)[C@@H](O[C@H]8[C@H](O)[C@@H](O)[C@@H](O[C@H]1[C@H](O)[C@H]2O)O[C@@H]8CO)O[C@@H]7CO)O[C@@H]6CO)O[C@@H]5CO)O[C@@H]4CO)O[C@@H]3CO |  | inconclusive: 61.9 µM [inhibitor, partial curve, poor fit]
4 | c1ccc2c(c1)Oc1ccccc1S2 |  | inactive and inconclusive: 43.6 µM [activator]
